# Screen size: about 71,000 compounds; about 1,800 (2.5%) were called active. The shares of active, inactive and inconclusive entries below differ from those in the screen. Calls come from the whole dose curve; as a rule, active = well fitted activation curve with a large enough effect in the signal ratio, with a control signal flat (not every such curve was filed as active); inconclusive = small, poorly fitted or top-dose-only effect, or effect the other way, or a change in a side signal; inactive = flat fitted curve, though single readings scatter; the % refers to the signal ratio. Potencies beside an inconclusive call are fits to weak or partial responses and may not hold up.
# Test: Cell signaling CRE-BLA (Fsk stim); for activity change, negative = inhibition: % of control where 0% means no effect
# Details: CHO CRE-bla reporter (cAMP response element driving beta-lactamase), forskolin EC10, beta-lactamase ratio; activity change, negative = inhibition: at 38.2 µM (top of the series) unless noted
# In short: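 Forskolin analogue NKH 477 at EC10 stimulated CRE-driven beta-lactamase in CHO cells alongside compound dilution series. Beta-lactamase was measured with CCF4, excitation 405 nm, emission ratio 460/530 nm.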
# Potency is the fitted concentration of half-maximal effect; tags give direction and shape of the fitted curve.
Structure (SMILES),Potency,"activity change, negative = inhibition"
O=CN1CC(=O)N(c2ccccc2)c2c([nH]c3ccccc23)C1,"inconclusive: 12.6 µM [rising, single point]",–
Cn1c(=O)c2[nH]c(SCCN3CCOCC3)nc2n(C)c1=S,–,inactive: 8.74% [at 7.6 µM]
CN(C)c1ccc(C2(c3ccc(N(C)C)cc3)OC(=O)c3cc(N(C)C)ccc32)cc1,"inconclusive: 25.1 µM [rising, partial curve]",–
CCN(CC)C(=O)C1CCN(Cc2ccc(Br)cc2)CC1,"inconclusive: 3.16 µM [falling, single point]",–
CC1CCCCC12NC(=O)N(Cn1nnc3ccccc3c1=O)C2=O (stereo not given),–,inconclusive: -1.42%
COC(=O)c1c(C)cc(C)n2c1nc1ccccc12,"inconclusive: 12.6 µM [rising, single point]",–
N#CCCn1nc(-c2ccccc2)cc1-n1c(C(F)(F)F)nc2ccccc21,–,inconclusive: -2.51%
CSC1=NCCN1C(=O)c1ccc(S(=O)(=O)N(C)C)cc1,inactive,–
COc1cc2c(C#N)c(N3CCN(c4ccccc4OC)CC3)nc(N)c2c(N)n1,–,inconclusive: -20.9%
O=C(c1cnc2sccn2c1=O)N(Cc1ccccc1)c1ccccn1,"inconclusive: 10 µM [rising, partial curve]",–
CCn1c(CSc2nnc(-c3ccoc3C)n2C)nc2cc(S(=O)(=O)N(C)C)ccc21,"inconclusive: 3.98 µM [falling, single point]",–
O=c1c2ccccc2n(Cc2ccc(Cl)cc2)c(=O)n1Cc1ccco1,"inconclusive: 10 µM [rising, partial curve, poor fit]",–
COc1ccc(Oc2cn[nH]c2-c2ccc(O)cc2O)cc1,inactive,–
CCCCOCCOCCOCc1cc2c(cc1CCC)OCO2,inactive,–
COc1ccc2c(=O)c3c(=O)n(Cc4ccco4)c(-c4ccc(C)cc4)nc3oc2c1,–,inconclusive: 16%
COc1ccc(C2C3=C(CC(C)(C)CC3=O)Oc3ncn(CC(C)C)c(=N)c32)cc1 (stereo not given),–,inconclusive: -2%
Cc1nn(Cc2nc(-c3cccs3)no2)c(C)c1Br,inactive,–
CCOC(=O)CSc1nc2sc3c(c2c(=O)n1CC)CC(C)(C)OC3,"inconclusive: 10 µM [rising, partial curve]",–
COC(=O)C1(CC(C)C)C=C2C(=C(c3ccccc3)C(=O)C2C)CN1 (stereo not given),inactive,–
Cc1cc(C)n(C(=O)c2ccc(NC(=O)C3COc4ccccc4O3)cc2)n1 (stereo not given),inactive,–
COc1ccc(NC2CS(=O)(=O)CC2NCc2ccco2)cc1 (stereo not given),inactive,–
Oc1ccccc1,inactive,–

Structure (SMILES),Potency,"activity change, negative = inhibition"
O=C(Nc1cnccn1)C1c2ccccc2Oc2ccccc21,"inconclusive: 5.01 µM [rising, single point]",–
CN(C)Cc1ccccc1-c1ccc2ncnc(NC3CCNCC3)c2c1,–,inconclusive: -0.943%
O=c1oc(-c2ccco2)nc2ccccc12,"inconclusive: 25.1 µM [rising, single point]",–
CCSc1nnc(-c2cccc(S(=O)(=O)N(C)C)c2)n1-c1cc(OC)ccc1OC,inactive,–
CC(C)(C(=O)O)c1ccc([C@@H](O)CCCN2CCC(C(O)(c3ccccc3)c3ccccc3)CC2)cc1,–,inconclusive: -5.84%
O=C(O)COc1ccc(Br)cc1/C=N/O,–,inconclusive: 3.69% [at 7.6 µM]
Cc1cc2nc(N)sc2cc1C,–,inconclusive: 21.3%
O=C1c2cccnc2C(=O)N1Cc1ccc(F)cc1,inactive,–
CCCC(c1nnnn1CCc1ccccc1)N1CCN(C(=O)c2ccco2)CC1 (stereo not given),inactive,–
COc1ccccc1C(=O)Nc1c2c(nn1-c1cccc(C)c1C)CS(=O)(=O)C2,active: 1.58 µM,–
N#Cc1c(N)nc2c(c1-c1ccncc1)CCCC2,"inconclusive: 10 µM [rising, partial curve]",–
CCOC(=O)c1cc(CC)sc1NC(=O)Cc1ccsc1,"inconclusive: 3.16 µM [rising, single point]",–
O=C(Nc1cccc(F)c1)N1CC2(CCN(C(=O)c3ccncc3)CC2)C1,inactive,–
O=C(NCc1ccccc1)c1cc(-c2ccco2)on1,"inconclusive: 0.158 µM [falling, full curve, poor fit]",–
COc1cc(C(=O)NCCC(=O)NCCN2CCCCCC2)cc(OC)c1OC,–,inconclusive: 28.9%
CCNc1ncc2nc(CCc3ccccc3)c(=O)n(CCC#N)c2n1,active: 5.01 µM,–
CCC(Sc1nc2c(cnn2-c2ccc(Cl)cc2)c(=O)[nH]1)C(=O)OC (stereo not given),active: 3.16 µM,–
COc1ccccc1-c1noc(-c2ccccc2C(=O)N2CCOCC2)n1,–,inconclusive: -18.5%
Cn1c(=O)c(-c2ccc(Cl)cc2)nc2cnc(Oc3ccccc3)nc21,active: 3.16 µM,–
OCCNCCCOc1cccc(Cl)c1Cl,–,inconclusive: 19%
Cc1cc(C(F)(F)F)nc(SCc2ccc(C(=O)O)o2)n1,"inconclusive: 5.01 µM [rising, single point]",–
CCOC(=O)N1CCN(C(=O)c2ccc3nc4ccsc4c(=O)n3c2)CC1,active: 10 µM,–

Structure (SMILES),Potency,"activity change, negative = inhibition"
O=C(NCc1ccco1)c1cc(-c2ccccc2)on1,–,inconclusive: -5.57%
CCOC(=O)c1ccccc1NC(=O)c1cccs1,"inconclusive: 12.6 µM [rising, partial curve]",–
O=C1C2C3C=CC(C3)C2C(=O)N1c1cccc2cccnc12 (stereo not given),–,inconclusive: -9.39% [at 7.6 µM]
Cc1cc(C)n2nc(SCn3nnc4ccccc4c3=O)nc2n1,active: 12.6 µM,–
CCNc1ncc2nc(-c3ccc(Cl)cc3)c(=O)n(Cc3cccc(OC)c3)c2n1,"inconclusive: 0.158 µM [rising, full curve]",–
C=CCN1C(=O)c2ccccc2Sc2ccc(C(=O)N3CCN(C)CC3)cc21,"inconclusive: 0.0251 µM [falling, full curve, poor fit]",–
COCCCCC(=NOCCN)c1ccc(C(F)(F)F)cc1,inactive,–
CCOc1ccc(-c2nn3c(-c4ccc(F)cc4)nnc3s2)cc1,inactive,–
COc1ccc(-n2nc(C(=O)NCc3ccco3)c3c4ccccc4n(C)c3c2=O)cc1,"inconclusive: 2.51 µM [rising, partial curve]",–
Cc1noc(C)c1-c1nc(NC2CC2)c2ccccc2n1,"inconclusive: 5.01 µM [rising, partial curve]",–
c1ccc2[nH]c(NCCCN3CCOCC3)nc2c1,–,inconclusive: 11.9%
CC(C)(Oc1ccc(Cl)cc1)C(=O)OCC(=O)N1CCCC1,inactive,–
CCNc1ncc2nc(-c3cccc(C#N)c3)c(=O)n(C)c2n1,active: 2 µM,–
CCCCN(CC)S(=O)(=O)c1ccc(C(=O)Nc2nnc(-c3cccs3)o2)cc1,inactive,–
C(CCc1nnc2c(n1)CCCC2)Cc1nnc2c(n1)CCCC2,–,inactive: 4.5% [at 7.6 µM]
Cc1ccc(-n2c(SCc3nnc4n3CCC4)nnc2-c2ccccc2)cc1,–,inconclusive: -0.113%
Cc1cc(=O)c2cc(Cl)ccc2[nH]1,–,inconclusive: 8.62%
CN(C)c1ccc(-c2nc(Nc3ccncc3)c3ccccc3n2)cc1,active: 1.26 µM,–
COc1ccccc1C(O)P(=O)(OC(C)C)c1ccc(N(C)C)cc1 (stereo not given),–,inconclusive: -14.4%
O=C(CN1CCCCC1)Nc1ccc(S(=O)(=O)NC2CCCCC2)cc1,"inconclusive: 12.6 µM [rising, partial curve]",–
Cc1cccc(-n2nnnc2SCC(=O)NCCN2C(=O)CSC2=O)c1,inactive,–
N[C@H](CCCP(=O)(O)O)C(=O)O,inactive,–

Structure (SMILES),Potency,"activity change, negative = inhibition"
CCOCCCNC(=O)c1ccc2c(c1)ncn2C1CCCC1,–,inconclusive: 1.03%
CC1=C(C(=O)Nc2ccccc2)C(c2ccco2)C(C#N)=C(SCC(=O)OC(C)C)N1 (stereo not given),–,inconclusive: -6.59%
Cc1cc(C)c2nc(C(F)(F)F)nc(N3CCN(C(=O)c4ccco4)CC3)c2c1,inactive,–
COc1ccc2nc3c(cc2c1)Cc1ccccc1-3,"inconclusive: 25.1 µM [rising, single point]",–
COc1ccc(OC)c(S(=O)(=O)N(C)CC(=O)Nc2ccc3c(c2)OCO3)c1,inactive,–
C=CCn1c(C(C)NC(=O)C(C)(C)C)nc2ccccc21 (stereo not given),inactive,–
Nc1nc(CSc2nc3ccccc3[nH]2)nc(N2CCOCC2)n1,active: 10 µM,–
Cc1cccc(S(=O)(=O)C(C#N)c2nc3ccccc3nc2N2CCOCC2)c1 (stereo not given),"inconclusive: 31.6 µM [falling, single point]",–
CCOc1ccc2nc(NC(=O)Nc3cccs3)sc2c1,"inconclusive: 25.1 µM [falling, single point]",–
c1ccc(N=P(c2nc3ccccc3o2)(N2CCOCC2)N2CCOCC2)cc1,"inconclusive: 5.01 µM [falling, single point]",–
COc1ccc(C(=O)O)cc1S(=O)(=O)Nc1cccc(C(F)(F)F)c1,inactive,–
COC(=O)C(C)NC(=O)C12CC3CC(CC(C3)C1)C2 (stereo not given),–,inconclusive: 7.12%
O=C(COc1ccc(Cl)cc1)NCc1nnc(SCC(=O)N2CCCc3ccccc32)o1,inactive,–
Cc1nc(-c2cccc(N)c2)cs1,"inconclusive: 10 µM [rising, single point]",–
CCOC(=O)CN1CC23C=CC(O2)C(C(=O)Nc2cc(OC)ccc2OC)C3C1=O (stereo not given),inactive,–
COc1ccc(Oc2ncc3nc(-c4ccccc4)c(=O)n(Cc4cccs4)c3n2)cc1,"inconclusive: 10 µM [rising, partial curve]",–
Cc1cc(C)c(S(=O)(=O)N(C)CC(=O)NC2CCCC2)c(C)c1,inactive,–
Cc1cc(C(F)(F)F)nc(NCc2cccnc2)n1,–,inconclusive: 17.5%
CCN1CCCC1CNC(=O)c1cc2c(=O)n(C)c3ccccc3c2n1C (stereo not given),"inconclusive: 10 µM [rising, partial curve]",–
